Reference: PubChem BioAssay AID588855 (National Center for Advancing Translational Sciences (NCATS), 2011)
Hit rate of the full screen: of about 410,000 compounds, about 5,000 (1.2%) were called active. The inconclusive results got no clear call from the source; some entries with a clear call stand among them for comparison. Calls come from the whole dose curve; as a rule, active = well fitted inhibition curve with a large enough effect; inconclusive = small, poorly fitted or top-dose-only effect; inactive = no such curve, though single readings can be large or run the other way. Where the call is inconclusive, the potency comes from a doubtful curve fit.

Experiment: qHTS for Inhibitors of TGF-b; note: nearly all actives have a fitted effect of over 65% in size
Details: HepG2 CAGA-GFP TGF-b/SMAD3 reporter, GFP fluorescence, 18 h, TGF-beta stimulated, 500 pg/mL final; series mostly up to 46.1 µM
Method in brief: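 Read-out: total well GFP (ex488/em500-530) summed from mean per-cell fluorescence. Cells: HEPG2 CAGA-GFP, 1% FBS DMEM, 18 h at 37 degrees C with 500 pg/mL final TGF-beta. Unstimulated wells served as the full-inhibition control; stimulated DMSO wells = 0%.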
Potency is the fitted concentration of half-maximal effect; tags give direction and shape of the fitted curve.

SMILES	Potency
CC(Sc1nnc(N)s1)C(=O)NCc1ccc2c(c1)OCO2 (stereo not drawn)	inconclusive: 2.82 µM [inhibitor, single point]
CCCCOc1ccc(CNC(=O)CN2C(=O)CCn3nc(-c4cn(C)c5ccccc45)cc32)cc1	inactive
CNc1ccc(S(=O)(=O)NCC(=O)OCC(=O)Nc2cccc(Cl)c2Cl)cc1[N+](=O)[O-]	inconclusive: 1 µM [inhibitor, full curve]
O=C(CSc1ncn[nH]1)Nc1ccccc1Sc1ccc(Cl)cc1	inconclusive: 11.2 µM [inhibitor, single point]
Cc1ccc(S(=O)(=O)Nc2ccccc2C=NNC(=O)c2ccncc2)cc1	inconclusive: 35.5 µM [inhibitor, single point]
CC(C)c1ccc(NC(=O)Cc2ccc(NC(=O)N3CCCCc4ccccc43)cc2)cc1	inactive
O=C(O)C1=C2C(=O)Nc3cccc(c32)C2(C1)C(=O)Nc1ccccc12 (stereo not drawn)	inactive
Cn1ccc2c(-c3ccc(C(F)(F)F)cc3)cc3c(c21)C1CCC3O1 (stereo not drawn)	inconclusive: 35.5 µM [inhibitor, single point]
Fc1ccc(Oc2nccc(-c3ccc(Cl)cc3)n2)cc1	inconclusive: 20 µM [inhibitor, single point]
CCOC(=O)c1c(C)[nH]c(C)c1S(=O)(=O)N(C)CC(=O)NCc1ccc(C)cc1	inconclusive: 35.5 µM [inhibitor, single point]
CCOc1ccc(S(=O)(=O)N2CCN(C(=S)NCc3ccccc3)CC2)cc1	inconclusive: 35.5 µM [inhibitor, single point]
CNC(=O)c1nc(C)c(C2(C)CC(c3cccc([N+](=O)[O-])c3)=NO2)s1 (stereo not drawn)	inconclusive: 0.112 µM [inhibitor, full curve, poor fit]
CC(=O)c1c(C)n([O-])c2cc(C)ccc2[n+]1=O	inactive
CCCCCC(=O)N1C[C@@H](O)[C@H](n2cc(-c3ccc(F)cc3)nn2)C[C@@H]1c1ccc(C)cc1	active: 17.8 µM
C=CCn1cc(C(=O)NCc2ccc3c(c2)OCO3)c(=O)c2cc(S(=O)(=O)N(CC)CC)ccc21	inconclusive: 35.5 µM [inhibitor, single point]
CCc1ccc(-c2cc(C)no2)cc1S(=O)(=O)N1CCOc2ccccc21	inconclusive: 35.5 µM [inhibitor, single point]
O=C(Nc1ccc(OCC(F)(F)C(F)F)c(C(F)(F)F)c1)c1ccccc1O	inconclusive: 8.91 µM [inhibitor, partial curve, poor fit]
O=C(CSCc1nc2ccccc2[nH]1)N1CCN(c2cccc(Cl)c2)CC1	inconclusive: 11.2 µM [inhibitor, partial curve, poor fit]
